Experimental data: PubChem BioAssay AID463173 (ICCB-Longwood Screening Facility, Harvard Medical School, 2010)
Out of some 52,000 compounds screened, about 1,700 (3.3%) were called active. Cut-off read from the data, not from the text of the source: active = survival mostly below about 52% (no sharp cut-off); inactive = mostly above about 56%. The list shows a part of the results.

System: Wild type
Assay: S. aureus survival, RN4220 and DeltatarO strains – OD600, teichoic acid synthesis inhibitors, primary screen (AID 463173)
Details: S. aureus RN4220 wild type/DeltatarO growth, OD600, 18 h, active compounds read low, screened at 18.75 µg/mL (by protocol)

Which survival does the source give for `O=C(Cn1nc(C(F)F)cc1C1CC1)NCCC1=CCCCC1` here?
Its survival is inactive: 117%.

For `CN(C)c1ccc(-c2nc(-c3ccncc3)no2)cc1[N+](=O)[O-]`, which survival is on record?
The survival was inactive: 62%.

With `NC(=O)CSc1ncnc2c1cnn2-c1ccccc1` as the compound, how does the survival read?
Its survival is inactive: 110%.

`COc1ccc(Cn2c(C(=O)O)c(CNC3CCC(C)CC3)c3ccc(C)cc32)cc1` (stereo unspecified) was tested. Which survival did it give?
The survival was inactive: 111%.

`COc1cc(C(=O)N2CCC(c3ccncc3)CC2)cc(OC)c1OC` was tested. Which survival did it give?
The survival was inactive: 78%.

For `CCOc1ccc(Nc2c(S(=O)(=O)c3ccc(C)cc3)cnc3ccc(OC)cc23)cc1`, which survival is on record?
Its survival is inactive: 73%.

Which survival does the source give for `C/C(=N\NC(=O)CCc1ccccc1)c1cccc(N)c1` here?
The survival was inactive: 108%.

`COc1ccc(CC(=O)N2CC(=O)Nc3ccc(Br)cc3C2c2ccc(F)cc2)cc1OC` (stereo unspecified) was tested. Which survival did it give?
The survival was inactive: 137%.

With `CCc1c(C)nc2cc(-c3ccc(OC)c(OC)c3)nn2c1NCC(C)(C)CN(C)C` as the compound, how does the survival read?
The survival was inactive: 109%.

`COc1cc2nc(NCc3ccccc3Cl)n3nc(-c4cccnc4)nc3c2cc1OC` was tested. Which survival did it give?
The survival was inactive: 121%.

With `CC(=O)N1CCCc2cc(S(=O)(=O)NCc3ccc(N(C)C)cc3)ccc21` as the compound, how does the survival read?
The survival was inactive: 72%.

For `COc1cccc(CNC(=O)c2cc(-c3cccs3)nc3ccccc23)c1`, which survival is on record?
The survival was inactive: 87%.

For `COCCCNC(=O)CSc1nc2nc(C)c(Cc3ccccc3Cl)c(C)n2n1`, which survival is on record?
The survival was inactive: 83%.

For `Cn1nc(-c2ccccc2)c(-c2ccccc2)c(C(=O)Nc2ccc(S(N)(=O)=O)cc2)c1=O`, which survival is on record?
The survival was inactive: 90%.

Which survival does the source give for `COc1cccc(C(=O)Nc2ccc3nc(SCc4ccc(C)cc4)sc3c2)c1` here?
Its survival is inactive: 78%.

Which survival does the source give for `Cc1cccc(-n2c(SCC(=O)Nc3ccccc3Cl)nc3n[nH]c(C)c3c2=N)c1` here?
The survival was inactive: 72%.

With `CC(C)(Oc1ccc(Cl)cc1)C(=O)Nc1ccc(Cl)cn1` as the compound, how does the survival read?
Its survival is inactive: 119%.

Which survival does the source give for `CSc1ccc(CCNC(=O)c2sc3ncccc3c2-n2cccc2)cc1` here?
The survival was inactive: 74%.

Which survival does the source give for `O=C(NCC(c1cccnc1)N1CCOCC1)C(=O)Nc1cccc(Cl)c1` (stereo unspecified) here?
Its survival is inactive: 85%.

Which survival does the source give for `COc1ccc(C(c2nnnn2C(C)(C)C)N2CCN(c3ccccc3)CC2)cc1` (stereo unspecified) here?
The survival was inactive: 104%.

For `CCOc1ccc(NC(=O)CN2C(=O)CCSc3ccc(S(=O)(=O)N4CCCC4)cc32)cc1`, which survival is on record?
The survival was inactive: 71%.

How did the survival turn out when `COc1cccc(-n2cc(C(=O)NCCc3cccc(C)c3)c3ccccc3c2=O)c1` was run?
Its survival is inactive: 89%.

For `Cc1cc(C)nc(Nc2nc3ccccc3s2)n1`, which survival is on record?
Its survival is inactive: 109%.

For `Cc1ccc(C)c(N2CCN(C(=O)C(C)n3nc(C)c4sc5ccccc5c4c3=O)CC2)c1` (stereo unspecified), which survival is on record?
The survival was inactive: 110%.

With `COC(=O)c1ccc(NC(=O)N2CCc3c([nH]c4ccccc34)C2c2ccc(C)cc2)cc1` (stereo unspecified) as the compound, how does the survival read?
Its survival is inactive: 100%.

For `CC(C)c1cc2cc(/C=C/C(=O)O)c(O)cc2o1`, which survival is on record?
The survival was inactive: 39%.

How did the survival turn out when `COc1ccccc1CNC(=O)C1CCN(c2nn3c(=O)cc(C)nc3s2)CC1` was run?
The survival was inactive: 83%.

With `O=C(NCc1ccccc1Cl)C(=O)NCC(c1ccco1)S(=O)(=O)c1cccs1` (stereo unspecified) as the compound, how does the survival read?
Its survival is inactive: 47%.

With `COc1ccc(Cn2c(=O)c3oc4ccccc4c3n(CC(=O)Nc3cc(C)cc(C)c3)c2=O)cc1` as the compound, how does the survival read?
Its survival is inactive: 90%.

How did the survival turn out when `Cc1c2cnn(CC(=O)NCCc3ccccc3)c(=O)c2c(C)n1Cc1ccccc1Cl` was run?
The survival was inactive: 97%.

`CCC1CCCCN1CCCNC(=O)c1ccc2c(c1)N(Cc1cccc(C)c1)C(=O)c1ccccc1S2(=O)=O` (stereo unspecified) was tested. Which survival did it give?
Its survival is inactive: 126%.

For `CCC1CCCCN1CCCNC(=O)c1cc2c(Cl)nc3ccc(C)cc3c2s1` (stereo unspecified), which survival is on record?
Its survival is inactive: 66%.

Which survival does the source give for `CCc1ccc(NC(=O)CSc2nc(=O)n(Cc3cccnc3)c3c2CCC3)cc1` here?
Its survival is inactive: 74%.

With `COc1cc(C(=O)NCC(c2ccc(N(C)C)cc2)N2CCCC2)cc(OC)c1OC` (stereo unspecified) as the compound, how does the survival read?
Its survival is inactive: 53%.

How did the survival turn out when `COc1ccc(/C=C(\C#N)c2nc(-c3ccc(Cl)c(Cl)c3)cs2)cc1OC` was run?
The survival was inactive: 77%.

For `Cc1ccc(S(=O)(=O)N(C)c2ccc3sc(C)nc3c2)cc1`, which survival is on record?
The survival was inactive: 111%.

How did the survival turn out when `CCOc1ccc(NC(=O)CSc2nc3nc(C)c(Cc4ccccc4)c(C)n3n2)cc1` was run?
The survival was inactive: 85%.

With `CCc1ccccc1NC(=O)CSc1nc2c(oc3ccccc32)c(=O)n1-c1ccccc1` as the compound, how does the survival read?
Its survival is inactive: 89%.

How did the survival turn out when `O=C(COc1ccccc1F)NC1CC(=O)N(c2ccc3c(c2)OCCO3)C1` (stereo unspecified) was run?
Its survival is inactive: 86%.

`Cc1ccc(-c2nc3ccc(Br)cn3c2Nc2ccc3c(c2)OCO3)o1` was tested. Which survival did it give?
Its survival is inactive: 61%.

How did the survival turn out when `CCOc1ccccc1CNS(=O)(=O)c1cnc(N)nc1` was run?
The survival was inactive: 55%.

Which survival does the source give for `COc1ccccc1Cn1c(CNS(=O)(=O)c2ccc(Cl)s2)nc2cccnc21` here?
The survival was inactive: 73%.

How did the survival turn out when `CC1=NC(C)(C)Cc2ccccc21` was run?
The survival was inactive: 106%.

With `CC(=O)c1cccc(NC(=O)Cn2cnc3c2c(=O)n(C)c(=O)n3C)c1` as the compound, how does the survival read?
The survival was inactive: 67%.

How did the survival turn out when `OCCCNC(c1ccccc1)c1ccc(O)cc1` (stereo unspecified) was run?
Its survival is inactive: 101%.

How did the survival turn out when `CCC(=O)N1CCc2cc(Br)cc(S(=O)(=O)N3CCCC(C(=O)Nc4ccc(CC)cc4)C3)c21` (stereo unspecified) was run?
The survival was inactive: 89%.
